In ChEMBL document CHEMBL4888484, “Replenishing the malaria drug discovery pipeline: Screening and hit evaluation of the MMV Hit Generation Library 1 (HGL1) against asexual blood stage Plasmodium falciparum ,using a nano luciferase reporter read-out” (2022):
Where “and” joins values, the source holds several entries; their conditions need not be identical. Identical values can stand only once. Hit rate of the full screen: of about 150,000 compounds, about 540 (0.36%) showed an effect of 50% or more. The list shows a part of the results.

Test system: Plasmodium falciparum
Test: Primary screen in NF54 nanoGlo assay, in single point, at 2uM, 72h; a lower Z score goes with more inhibition
Assay type: functional, Erythrocyte
Details: timepoint 72 hour

Compound | % Inhibition [%] | Z score | % Inhibition (2 µM) | Z score (2 µM)
COc1cc(C)ccc1OCCn1ncc(N2CCOCC2)cc1=O | -8 | 0.7 | – | –
CCN(CC)[C@H]1CCN(C(=O)NCCC(C)C)C1 | -8 | 1.19 | – | –
NCc1cc(NC(=O)c2cn(C3CC3)nn2)cc(C(F)(F)F)c1 | 9 | -1.1 | – | –
CCCc1ncncc1C(=O)N(C)[C@H]1CCN(C)C1 | 1 | -0.15 | – | –
Cc1cc(NC(=O)C(C)N2CCOC(c3nccs3)C2)no1 (stereo not drawn) | 7 | -1.18 | – | –
Cc1noc(C2CC2)c1NS(=O)(=O)c1cnc2ccccn12 | -13 | 1.46 | – | –
Cc1c(Cl)cccc1CNC(=O)[C@@H]1CC[C@H](C(=O)O)C1 | -6 | 1.35 | – | –
CC(C)(C)CNCc1ccc(C2OCCO2)cc1 | 6 | -0.87 | – | –
CCC(NC(=O)c1scnc1C)C(O)C(F)(F)F (stereo not drawn) | -2 | 0.38 | – | –
Cc1cc(C)n(CC(=O)NCCc2ccccc2)c(=O)c1-c1nc(-c2ccc3c(c2)OCO3)no1 | -12 | 1.71 | – | –
CCn1ccc2c(CN3CCC4(CC3)COC(=O)O4)cccc21 | 5 | -0.97 | – | –
CCCN(CC#N)C(=O)Cc1c(Cl)cccc1Cl | -7 | 0.71 | – | –
CCN1CC[C@@]2(CCC1=O)CN(Cc1cccc(OC(F)F)c1)CCN2C | -3 | 0.66 | – | –
CCNC(=O)N1CC(C(=O)NCc2ccccc2F)CCC1c1ccccc1 (stereo not drawn) | -16 | 1.61 | – | –
CN(C)S(=O)(=O)c1ccc(COc2ccccc2-n2ccnc2)o1 | 2 | -0.31 | – | –
O=C(NC(c1ccc(F)cc1F)[C@H]1C[C@@H](O)C1)c1n[nH]cc1Cl (stereo partly drawn) | 10 | -2.02 | – | –
N#Cc1ccc(NC(=O)N2CCC[C@H](c3nnc4ccc(C(F)(F)F)cn34)C2)cc1 | -11 | 1.73 | – | –
O=C(Nc1ccc(CCN2CCCC2)cc1)[C@H]1CCCC12OCCO2 | -9 | 1.07 | – | –
CC(C)c1cc(NC(c2nccn2C)c2nccn2C)n2ncnc2n1 | -7 | 1.06 | – | –
Cc1ccc([C@@H](NC(=O)N2CCCC2)C(Cl)(Cl)Cl)cc1F | -9 | 1.42 | – | –
Cn1cccc1CN(Cc1cccs1)S(=O)(=O)c1cccs1 | 3 | -0.45 | – | –
CN(CC1(C)COC1)C(=O)Cc1ccc(F)cc1Cl | -5 | 0.8 | – | –
Nc1c(-n2cnnn2)cc2c(c1Br)OCCO2 | 2 | -0.32 | – | –
CCCCS(=O)(=O)N[C@H](c1nccn1C)C(C)C | -13 | 1.66 | – | –
O=C(Nc1ccccc1)C1CCN(C(=O)c2ccc(Cl)c(S(=O)(=O)NC3CC3)c2)CC1 | -38 | 4.48 | – | –
Cc1ccccc1CC1(NC(=O)c2ccn(C(F)F)n2)CC1 | 5 | -0.67 | – | –
Cc1ccc(OCC(=O)N2CCC3(CCN(Cc4ccccc4)CC3)C2)c(C)c1 | -8 | 0.9 | – | –

Compound | % Inhibition [%] | Z score | % Inhibition (2 µM) | Z score (2 µM)
O=C(NCC1CC1)c1ncc(Br)cc1Br | -7 | 0.95 | – | –
Cc1ccc(C2CN(Cc3ccc(N(C)C)cc3)CC2CN(C(=O)C(C)C)C(C)C)cc1 (stereo not drawn) | 4 | -0.39 | – | –
COCc1cnc(CN2CC[C@H](O)C23CCCC3)s1 | -4 | 0.43 | – | –
Cn1ccnc1CNC(=O)[C@@H]1CCc2cc(Br)ccc21 | -12 | 1.72 | – | –
Cc1cc(C)nc(NC(=O)c2cc3n(n2)CCCO3)n1 | -30 | 4.59 | – | –
Cc1cccc(-c2noc(-c3sccc3S(=O)(=O)N(C)c3ccc(F)c(F)c3)n2)c1 | -6 | 0.83 | – | –
NC(=O)NC(=O)C1CCC(NC(=O)c2cnn(-c3ccc(Br)cc3)c2)CC1 (stereo not drawn) | -2 | 0.34 | – | –
Cc1cccc(NC(=O)C(=O)NCCn2ccnc2C)n1 | 1 | -0.13 | – | –
COc1ccc2c(c1)CN(C(=O)C1CC3CCC1C3)CC2 (stereo not drawn) | 38 | -1.16 | – | –
CC(C(=O)NCC1CCCN(C)C1c1cccs1)n1cccn1 (stereo not drawn) | 8 | -0.89 | – | –
CNC(=O)Cc1csc(NC(=O)CCc2nc3ccccc3c(=O)[nH]2)n1 | – | – | -18% and -16% | 2.87 and 2.08
C=CC[C@@H](CO)NC(=O)COc1ccccc1C | -2 | 0.41 | – | –
O=C1[C@@H]2C[C@H](O)CCN2C(=O)CN1CCc1ccccc1Cl | -4 | 0.75 | – | –
Cc1ccc(-c2nc(N3CCCC[C@@H]3C)nc3ccccc23)cc1 | -8 | 1.25 | – | –
Cc1ccccc1Nc1nc(N)nc(CN2CCCCCC2)n1 | 12 | -1.18 | – | –
C[C@H]1CN(CC(F)(F)F)CCN(S(=O)(=O)CC2(C#N)CCCC2)C1 | 32 | -3.63 | – | –
Cc1cccc(C)c1OC[C@@H](O)CNC(C)(C)CC(C)(C)C | 31 | -3.93 | – | –
O=C(COC[C@H]1CCCO1)N1CCN(c2cccc3[nH]cnc23)CC1 | 2 | -0.38 | – | –
COCC(C)(C)C(=O)N1C[C@@H]2NC(=O)c3ccc(OC)c(c3)OCCn3cc(nn3)CO[C@H]2C1 | -11 | 2.16 | – | –
CC[C@@H](Cc1ccc(C)cc1)NC(C)=O | 1 | -0.3 | – | –
CCn1nc(C)cc1C(=O)N1C[C@@H]2OC(=O)N(CCCN3CCOCC3)[C@@H]2C1 | -15 | 1.39 | – | –
CCN1CCC[C@H](c2c(-c3ccccc3)ncn2Cc2c(C)n[nH]c2C)C1 | -11 | 1.29 | – | –
CC(C)(CNCc1cn(CCC#N)nc1-c1ccccc1)N1CCOCC1 | 4 | -0.84 | – | –
Cc1ccc(N2C(=O)c3cc(-c4cccs4)nn3C[C@@]2(C)C(=O)NC2CCCCCCC2)cc1 | -11 | 2.13 | – | –
Cc1ccc(N2N=NC3C(=O)N(c4cc(C)cc(C)c4)C(=O)C32)cc1 (stereo not drawn) | -12 | 1.33 | – | –
COCc1nc2n(n1)[C@@H](c1ccc(O)cc1)C[C@@H](C)N2 | -11 | 1.46 | – | –
O=C(Nc1ccnn1C1CCCC1)c1cncc(Br)c1 | -3 | 0.53 | – | –
